The densities may have been worked out from excess volumes.
Assay: xn = mol fraction of the nth substance listed
Details: 101 kPa

CS(C)=O + CC(=O)[O-].CC[NH2+]CC
mass density (298.15 K, x1 = 1): 1095.4 kg/m3 | mass density (303.15 K, x1 = 1): 1092.4 kg/m3 | mass density (308.15 K, x1 = 1): 1086.1 kg/m3

CC(=O)[O-].CC[NH2+]CC + CS(C)=O
mass density (298.15 K, x1 = 0.0144): 1094 kg/m3 | mass density (298.15 K, x2 = 0): 1021.5 kg/m3 | mass density (298.15 K, x2 = 0.0253): 1022.6 kg/m3 | mass density (298.15 K, x2 = 0.0627): 1024.3 kg/m3 | mass density (298.15 K, x2 = 0.1132): 1026.6 kg/m3 | mass density (298.15 K, x2 = 0.1535): 1028.6 kg/m3 | mass density (298.15 K, x2 = 0.2458): 1033.3 kg/m3 | mass density (298.15 K, x2 = 0.3244): 1037.8 kg/m3 | mass density (298.15 K, x2 = 0.3701): 1040.5 kg/m3 | mass density (298.15 K, x2 = 0.4864): 1048.3 kg/m3 | mass density (298.15 K, x2 = 0.7253): 1068 kg/m3 | mass density (298.15 K, x2 = 0.8406): 1079.2 kg/m3 | mass density (298.15 K, x2 = 0.8923): 1084.4 kg/m3 | mass density (298.15 K, x2 = 0.9248): 1087.7 kg/m3 | mass density (298.15 K, x2 = 0.956): 1090.9 kg/m3 | mass density (303.15 K, x1 = 0.0144): 1091 kg/m3 | mass density (303.15 K, x2 = 0): 1016.5 kg/m3 | mass density (303.15 K, x2 = 0.0627): 1019.5 kg/m3 | mass density (303.15 K, x2 = 0.1132): 1021.9 kg/m3 | mass density (303.15 K, x2 = 0.1535): 1023.9 kg/m3 | mass density (303.15 K, x2 = 0.2023): 1026.4 kg/m3 | mass density (303.15 K, x2 = 0.2458): 1028.8 kg/m3 | mass density (303.15 K, x2 = 0.2814): 1030.8 kg/m3 | mass density (303.15 K, x2 = 0.3244): 1033.3 kg/m3 | mass density (303.15 K, x2 = 0.3701): 1036.1 kg/m3 | mass density (303.15 K, x2 = 0.4864): 1044 kg/m3 | mass density (303.15 K, x2 = 0.5897): 1052.1 kg/m3 | mass density (303.15 K, x2 = 0.66): 1058.2 kg/m3 | mass density (303.15 K, x2 = 0.7851): 1070.2 kg/m3 | mass density (303.15 K, x2 = 0.8923): 1081.3 kg/m3 | mass density (303.15 K, x2 = 0.956): 1087.9 kg/m3 | mass density (303.15 K, x2 = 0.971): 1089.5 kg/m3 | mass density (308.15 K, x1 = 0.0144): 1084.8 kg/m3 | mass density (308.15 K, x2 = 0): 1011.9 kg/m3 | mass density (308.15 K, x2 = 0.0253): 1013.1 kg/m3 | mass density (308.15 K, x2 = 0.0627): 1014.9 kg/m3 | mass density (308.15 K, x2 = 0.1132): 1017.3 kg/m3 | mass density (308.15 K, x2 = 0.2023): 1021.7 kg/m3 | mass density (308.15 K, x2 = 0.2458): 1024 kg/m3 | mass density (308.15 K, x2 = 0.3244): 1028.5 kg/m3 | mass density (308.15 K, x2 = 0.3701): 1031.2 kg/m3 | mass density (308.15 K, x2 = 0.4864): 1039 kg/m3 | mass density (308.15 K, x2 = 0.5897): 1046.9 kg/m3 | mass density (308.15 K, x2 = 0.66): 1052.8 kg/m3 | mass density (308.15 K, x2 = 0.7253): 1058.8 kg/m3 | mass density (308.15 K, x2 = 0.7851): 1064.7 kg/m3 | mass density (308.15 K, x2 = 0.8406): 1070.3 kg/m3 | mass density (308.15 K, x2 = 0.8923): 1075.5 kg/m3 | mass density (308.15 K, x2 = 0.9248): 1078.9 kg/m3 | mass density (308.15 K, x2 = 0.956): 1081.9 kg/m3 | mass density (308.15 K, x2 = 0.971): 1083.3 kg/m3
